Results from patent US20190361007A1 (Novo Nordisk, published 2019).

Experiments:
Test in all cases: cell-based or functional assay
[1] = biological target: human insulin receptor (HIR, +exon 11) (human)
[2] = biological target: human insulin receptor (HIR, +exon 11) (human); remark: listed apart in the source
[3] = biological target: human insulin receptor (HIR, +exon 11) (human); remark: listed apart in the source

B1: A14E, B16E, B25H, B29K(N(eps)eicosanedioyl-gGlu-2×OEG), desB30 human insulin (ligand)
chain 1: not shown
chain 2: FVNQHLCGSHLVEALELVCGERGFHYTPK
modifications: B29K(N(eps)eicosanedioyl-gGlu-2×OEG): Lys B29 acylated on the epsilon amino group
pAkt assay, EC50(nM), DP (liquid formulation) [1]: 591 nM | pAkt assay, EC50(nM), DS (drug substance) [1]: 619 nM | pAkt assay, EC50 (nM) [2]: 522 nM | pAkt assay, Relative Potency against human insulin [2]: 0.0006 | pAkt assay, Relative Potency against human insulin (percent) [2]: 0.06%

B2: A14E, B25H, B29K(N^εOctadecanedioyl-gGlu-OEG-OEG), desB30 human insulin (ligand)
chain 1: not shown
chain 2: FVNQHLCGSHLVEALYLVCGERGFHYTPK
modifications: B29K(N^εOctadecanedioyl-gGlu-OEG-OEG): Lys B29 acylated on the epsilon amino group
pAkt assay, EC50 (nM), DP (2700 nmol tablet) [3]: 47 nM | pAkt assay, Relative Potency against human insulin [2]: 0.0064 | pAkt assay, Relative Potency against human insulin (percent) [2]: 0.64%
